In paper PMC3364239:

How the values were obtained:
[1] = molecular target: V-CaMKIIα[TT305/306DD] (mouse) (UniProt P11798); assay: brightness analysis by fluorescence correlation spectroscopy (FPFA); supernatants of homogenates of transfected HEK 293 cells (passive lysis buffer, 100,000 x g for 1 hour), diluted; two-photon excitation at 950 nm, 10.2 mW; room temperature; brightness normalized to that of Venus monomer
[2] = molecular target: Venus-CaMKIIα, expressed in HeLa cells (mouse) (UniProt P11798); assay: FRET or BRET; hetero-FRET (Cerulean donor, Venus acceptor) in living HeLa cells, E-FRET method on an automated wide-field microscope; FRET efficiency against fraction donor, one point a cell, linear fit
[3] = molecular target: Venus-tagged calcium-calmodulin dependent protein kinase-II alpha (Venus-CaMKIIα), expressed in HEK 293 cells (mouse) (UniProt P11798); assay: brightness analysis by fluorescence correlation spectroscopy (FPFA); living HEK cells transfected with RNA; 6 mW excitation; room temperature; normalized brightness from the linear fit of the V2-V6 brightness controls in cells
[4] = molecular target: Venus-tagged calcium-calmodulin dependent protein kinase-II alpha (Venus-CaMKIIα), expressed in HEK 293 cells (mouse) (UniProt P11798); assay: brightness analysis by fluorescence correlation spectroscopy (FPFA); supernatants of homogenates of transfected HEK 293 cells (passive lysis buffer, 100,000 x g for 1 hour), diluted; two-photon excitation at 950 nm, 10.2 mW; room temperature; brightness normalized to that of Venus monomer

Chain of UniProt P11798 (P11798 whole entry): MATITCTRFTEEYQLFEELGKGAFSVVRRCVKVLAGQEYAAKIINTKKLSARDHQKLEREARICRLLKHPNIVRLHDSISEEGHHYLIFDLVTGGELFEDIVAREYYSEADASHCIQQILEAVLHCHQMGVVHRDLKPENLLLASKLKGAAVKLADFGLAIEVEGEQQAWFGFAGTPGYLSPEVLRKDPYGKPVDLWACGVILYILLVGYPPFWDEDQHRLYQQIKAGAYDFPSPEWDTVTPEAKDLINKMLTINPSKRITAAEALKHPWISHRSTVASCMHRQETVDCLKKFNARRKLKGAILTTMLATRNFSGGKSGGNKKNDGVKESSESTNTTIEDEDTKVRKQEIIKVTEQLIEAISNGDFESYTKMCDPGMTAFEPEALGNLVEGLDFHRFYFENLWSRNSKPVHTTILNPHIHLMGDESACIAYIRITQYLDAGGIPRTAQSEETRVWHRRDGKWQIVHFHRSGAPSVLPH

In the case of “V-CaMKIIα[TT305/306DD] (a stretch of the chain, sequence left out) (enzyme; other documents disagree on this pair)”, the stoichiometry N [1] is reported as 10.7.

For “Cerulean-CaMKIIα (a stretch of the chain, sequence left out) (enzyme; other documents disagree on this pair)”, the FRET efficiency [2] was 0 to 40% and the FRET efficiency (y-intercept at donor fraction zero) [2] was 39.4%.

In the case of “Venus-tagged calcium-calmodulin dependent protein kinase-II alpha (Venus-CaMKIIα), expressed in HEK 293 cells (a stretch of the chain, sequence left out) (enzyme; other documents disagree on this pair)”, the stoichiometry N [3] is reported as 11.9 and 8 subunits to 14 subunits (2×) and the stoichiometry N [4] is reported as 10.2.

Several values for one entry are separate records, joined by “and”; a condition that tells them apart may be missing. Equal values may be shown once.
